Data taken from the supplement of paper PMC12217912.
This is one part of the list. The full chains were built here from the parent and the listed change. Values near 0.05 are background.

B1: TEV protease; numbered along this chain (parent)
chain: MGESLFKGPRDYNPISSSICHLTNESDGHTTSLYGIGFGPFIITNKHLFRRNNGTLVVQSLHGVFKVKDTTTLQQHLVDGRDMIIIRMPKDFPPFPQKLKFREPQREERICLVTTNFQTKSMSSMVSDTSCTFPSGDGIFWKHWIQTKDGQCGSPLVSTRDGFIVGIHSASNFTNTNNYFTSVPKNFMELLTNQEAQQWVSGWRLNADSVLWGGHKVFMVKPEEPFQPVKEATQL

Variants of: B1
Assay: raw area under fraction-flipped curve 0-4 h after induction (AUC4h, not background-subtracted), DNA-recorder readout of cleavage of the substrate (dimensionless); higher = more cleavage of the substrate by the protease variant
Conditions: temperature: 34 °C; time window: 0-4 h after rhamnose induction
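Further: Bxb1 expression induced with 0.2% (w/v) L-rhamnose at OD600 near 0.5, cultures sampled hourly, flipped fraction per protease–substrate barcode pair counted by paired-end Illumina sequencing.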

| Variant | area with substrate CNLYFQS | area with substrate DNLYFQS | area with substrate FNLYFQS | area with substrate GNLYFQS | area with substrate HNLYFQS | area with substrate KNLYFQS | area with substrate LNLYFQS | area with substrate MNLYFQS | area with substrate NNLYFQS | area with substrate QNLYFQS | area with substrate SNLYFQS | area with substrate TNLYFQS | area with substrate WNLYFQS | area with substrate YNLYFQS | area with substrate PNLYFQS | area with substrate VNLYFQS | area with substrate INLYFQS | area with substrate RNLYFQS |
| --- | --- | --- | --- | --- | --- | --- | --- | --- | --- | --- | --- | --- | --- | --- | --- | --- | --- | --- |
| F226Q | 0.12 | 0.137 | 0.047 | 0.0838 | 0.0598 | 0.0822 | 0.0673 | 0.0642 | 0.0583 | 0.0596 | 0.0678 | 0.0603 | 0.0565 | 0.0768 |  |  |  |  |
| Q227W | 0.0331 | 0.0629 |  | 0.0722 | 0.0455 | 0.062 |  |  |  |  | 0.0493 | 0.0662 | 0.0375 |  | 0.0671 | 0.057 |  |  |
| V229E | 0.109 | 0.115 |  | 0.0635 | 0.0668 |  | 0.0666 | 0.0679 | 0.0673 |  |  | 0.0677 | 0.0655 |  | 0.0912 |  |  |  |
| V229K | 0.0644 | 0.0789 | 0.0524 |  | 0.072 |  | 0.0731 |  |  |  | 0.0506 | 0.0574 |  |  | 0.0668 | 0.0695 | 0.0595 |  |
| V229Q | 0.0782 | 0.0889 |  |  | 0.0567 | 0.0758 | 0.0714 |  |  |  | 0.0663 | 0.0593 | 0.0547 | 0.0436 | 0.0661 |  | 0.0607 |  |
| K230S | 0.0399 | 0.0788 | 0.0665 |  | 0.0624 |  | 0.0761 |  | 0.0567 |  | 0.0709 | 0.066 | 0.0536 | 0.0509 | 0.0556 |  | 0.05 |  |
| E231N | 0.0761 | 0.0922 |  |  | 0.0575 | 0.0762 | 0.0712 |  |  | 0.079 |  |  | 0.0492 | 0.0719 |  |  |  | 0.0621 |
| E231V | 0.0586 | 0.0728 | 0.0532 | 0.0738 | 0.0598 | 0.0641 | 0.0574 | 0.0634 |  |  | 0.0751 | 0.0677 | 0.0644 | 0.0329 | 0.0674 | 0.069 |  |  |
| T233E | 0.0576 | 0.0953 |  |  |  |  | 0.0812 |  | 0.0495 | 0.0745 |  |  | 0.055 |  | 0.0654 |  | 0.0652 |  |
| T233M | 0.0993 | 0.0612 |  | 0.0712 | 0.0565 | 0.0672 | 0.0541 | 0.0432 | 0.0752 |  | 0.0754 | 0.0677 | 0.0642 | 0.0698 | 0.0646 |  | 0.0754 |  |
| T233Q | 0.0806 | 0.0914 |  |  | 0.064 | 0.0702 | 0.0673 |  | 0.0681 |  |  | 0.0651 |  | 0.0527 |  | 0.0918 |  |  |
| Q234S | 0.0672 | 0.0917 |  | 0.0685 | 0.0627 | 0.07 |  | 0.0842 |  | 0.0527 |  | 0.0706 | 0.0567 | 0.0565 | 0.072 |  | 0.0607 |  |
| Q234T | 0.0608 | 0.0793 |  |  | 0.0804 | 0.0715 | 0.0627 | 0.0512 | 0.0728 | 0.0751 | 0.0783 | 0.067 | 0.0661 | 0.0647 | 0.0609 | 0.0754 |  |  |
| Q234V | 0.0725 | 0.0838 |  | 0.0533 | 0.104 | 0.0569 | 0.0524 |  |  |  |  | 0.0724 | 0.0557 | 0.062 | 0.0708 | 0.0886 | 0.065 |  |
| L235E | 0.0801 | 0.0669 |  |  | 0.0943 |  |  |  |  |  | 0.117 |  | 0.0632 |  |  |  |  |  |
| L235Q | 0.0595 | 0.0905 | 0.0526 | 0.0691 | 0.0571 |  |  | 0.0698 |  |  | 0.11 |  | 0.057 | 0.0613 |  | 0.071 | 0.0588 |  |
